The list shows a part of the results.
Each sequence was assayed on PfAP2-HC AP2 domain (GST-tagged) (assay: gcPBM binding intensity (ln(normalized median fluorescence intensity)); higher = stronger DNA binding).
Summary of the method: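 For binding intensity, the highest Masliner-normalised natural-log median intensity across replicate spots of either probe orientation was taken. Protein bound to the array was stained with Alexa488 anti-GST antibody and scanned at 488 nm. The protein, GST-tagged P. falciparum DNA-binding domains from E. coli at about 25 μg on average, had been applied for 1 h to an Agilent 4 × 180k array of primer-extended double-stranded 36-bp intergenic genomic probes and negative controls.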

Sequence | gcPBM binding intensity (ln)
TTATTTAAAAAATTTTTAAATATACAAAAAAAAAAA [TGCATGCA_negctrl_site464] | 9.33
ATTATAAGAAGGGGGGGTACATAAATATAAATGTAT [XGTACX_site5624] | 10.5
TTTAATTTTCGGTGTGCACACAACTATGAGTTTTTA [CACACA_site3034] | 10.1
TACTGGTATCGATATAGTACATATAATATTATGTTA [XGTACX_site7490] | 9.69
AATTGAATAAATTAAACATGCACAGATGTTCTATTT [TGCATGCA_site692] | 9.64
AGGATTAAAAAAACATGTACGTATTTAAATATATTT [XGTACX_site8774] | 9.75
TTTTTTTTTTTTTTTTTTTTTTTTTTTTTTTTTTTT [CACACA_negctrl_site104] | 9.15
GTATAAAAAAATAAAAGTACAAAAAAAAAAGACTGA [XGTACX_site186] | 9.98
AAATAAAAAATATGAACACACATATATAACAAAATA [CACACA_site261] | 10.4
TTACAAATGTAGAAAAGTACATATAATAATAATTTA [XGTACX_site3044] | 9.57
ATGGATAATAATAAGTGTACACATATATTTAGAAGA [XGTACX_site244] | 9.97
GGTAGAAAATCAGTTAAACACACACCGAAAAAAAAA [CACACA_site8934] | 10.1
ATTTGTATAATAAGTTGTACAATTCTTACAATATAA [XGTACX_site4164] | 9.54
TTTAAGCGTTCACTGCTGCACTTTTATGTTGTGACC | 9.59
AAAAAAAAAAAAAGCACACACACATATGCGTATATA [CACACA_site953] | 10.3
TAAATATAACAGAATAATATGTGGATTAATAAATGA [CACACA_negctrl_site438] | 9.68
ATATAATATGTTGAATGTACTTAAAAAAATGTATCT [XGTACX_site5385] | 9.71
TTAAGTTACAATTCTCGTACACATTAAAAGAAAATT [XGTACX_site699] | 9.49
AAAAAAAAAAAAAAAACACACATGTATACTAGAATA [CACACA_site7108] | 9.75
TATAAGAAATAAAACCTGATTATAAACCTGTAACCA [CACACA_negctrl_site1302] | 9.66
AAGGCAAACAGACACACACACATATATACCTATATA [CACACA_site7077] | 10.4
GTTATACACATTACATGTACAAAAGTTGCACTTCAT [XGTACX_site6023] | 9.86

Sequence | gcPBM binding intensity (ln)
GTTGCCATCATTTGGCGTACAGTCAAAACCAAATCT [XGTACX_site1398] | 9.27
AAATTTTTTTTTTAATTTTTTATTTAAAAAAAATAT [TGCATGCA_negctrl_site174] | 9.02
GTTATAAATAAATATACACACATATATAAAATACAT [CACACA_site7146] | 9.97
TATAACATAAAACACACACACATACATACACAAAAA [CACACA_site1804] | 11
CGCTTTATTTATATATGTACATATATATATATATAC [XGTACX_site5012] | 9.85
AAGAGCAACCAAATAGAAAAAGGAAAATAAAAGGAA [CACACA_negctrl_site100] | 9.66
TCCTATTTTATATAATGTACATAAATATATTACATA [XGTACX_site2720] | 9.65
TTTGTTCAATTTACATGTACAGATATAATCTAACAT [XGTACX_site370] | 9.65
TCTATTAAAACAAATTGTACTTATTGATAAAGAATA [XGTACX_site3645] | 9.4
ATTTTTATTTTATATACACACAATAATAATATAATA [CACACA_site4015] | 9.54
AAAATATATAAACGCACATATATTTATGTATATATA [CACACA_negctrl_site163] | 9.83
TAAAAAAAAACATGATGTACATAAAATTTTTTACTT [XGTACX_site7056] | 9.63
AAAAGGGAAAAAATTAAAATTATATATATATATATG [CACACA_negctrl_site137] | 9.41
TTATTAGAGATGTTAAGATATAGGGATAATTTCGAT [XGTACX_negctrl_site395] | 9.48
TACATATATTTAAGGAGTACAAAAAATAATGATAAA [XGTACX_site3539] | 9.64
ATATGTTTTAAGTGTACACATATAATGTATTTTGTT [CACACA_site4929] | 9.82
TATTATGCTATTTAATGTACGGAATTTATATATATA [XGTACX_site564] | 9.5
AACCTATCTATAGGAACAATATATATATATATAATT [CACACA_negctrl_site1707] | 9.62
TTGCTCATTGAAATTATACACACCAAATATATAAAT [CACACA_site2482] | 9.63
GACATAGTATTAAGTTGTACATATATAAAAATAAAT [XGTACX_site1583] | 9.71
TTGCTTTTCATTTATTGTACATACCCAGTAGGATAA [XGTACX_site3939] | 9.58
TTACGAATGAATATATGTACATATATATATATATAT [XGTACX_site3790] | 10.1

Sequence | gcPBM binding intensity (ln)
AATGTACACGCACCCACACACAAACAAATATAAATA [CACACA_site7319] | 11.6
ATGTTTTCAAAAATAAAACATATAAATAAATAAATA [TGCATGCA_negctrl_site226] | 9.51
CAACAACAAATGAGAAGTACATAAATATTAACAATA [XGTACX_site4625] | 9.96
TTATAATACCTACAAAGTACAAACTTAAATATGAAC [XGTACX_site5684] | 9.59
AAGCTTAAAAATGGGGGTACGTCATAGGGATTCAAC [XGTACX_site8080] | 9.79
AATATATAAACATATACACACAAAAACATATATATA [CACACA_site4855] | 10.4
TTTGACACAATATTTTGTACGAAACTATTAATTCAA [XGTACX_site4853] | 9.62
AAAAAAAAGAATTAGGCACACAATTTTAATATAGGA [CACACA_site1522] | 9.75
ACTACGAATGGTAGAGTGCAGTCTGGAGAAGAGTAC [GTGCAC_site9685] | 9.94
GCATACATCAAGCACACACACACACGCACACGCACA [CACACA_site6311] | 11.3
GTGAAGTTCAAAATATGTACTTATGTATGTATTTTT [XGTACX_site165] | 9.67
TTATGGATGGACAATAATAAAATTTTTACTTTTATT [CACACA_negctrl_site908] | 9.48
TTATGTTTCATAAAAAATTAATCAAACATATATAAG [CACACA_negctrl_site666] | 9.32
TATACATAGAAACACACACACATAAATAAATATATA [CACACA_site1342] | 10.4
CCTTAAATAATATATTCACACAATATAACAAAAATT [CACACA_site4892] | 9.56
TGGTATATAAAACACACACACATATGTATATATATA [CACACA_site926] | 10.3
AAAAAAAAAATTATATATATATCCCTTATTTTTTCT [TGCATGCA_negctrl_site151] | 9.68
TCATATATATTGAAATGTACTTATTTTTTCCTCATA [XGTACX_site6526] | 9.48
CATACACAGAAACACACACACATATATACATATATA [CACACA_site1094] | 10.4
AACAAATATGATTTTTTATATATTTTTAAATTTGGT [GTGCAC_negctrl_site189] | 9.49
AGTTTAATTTTGTATACACACATTTGAATTATTAAT [CACACA_site7625] | 9.93
TATATCTATTTCAAATGTACTTATATGATTCTTATA [XGTACX_site6277] | 9.59

Sequence | gcPBM binding intensity (ln)
AGCTACAAAAATTAATATATATATGTATAGTTATAC [TGCATGCA_negctrl_site531] | 9.4
AAATTACTGTAAAAAAGTACAGAAGTTCTTATTTTT [XGTACX_site7416] | 9.44
GTTCATATAATAAAATGTACATAATATATTATATAT [XGTACX_site7623] | 9.59
TATATGTAGATTAAACGTACTTACAACGGAATTATC [XGTACX_site3036] | 9.64
GTATTATATTTTAATACACACCCAAATATTAAAAAG [CACACA_site8968] | 9.77
AAATGTTCAGAAACTATTATAAAAATGGAATAATAT [CACACA_negctrl_site1544] | 9.53
TGCCATCATATCATAGGTACACAAACATATAAAGAA [XGTACX_site4137] | 9.63
CTTAATATGGATATTGCATGTAGAACATGAACAATA [TGCATGCA_site760] | 9.61
TAAATATTATATTTATGTACATAAGTTTTTTTTAAT [XGTACX_site3559] | 9.56
TTATGCTCAAAGAAAAGTACATAAATAAAAGTATAT [XGTACX_site7365] | 9.54
TTAACAAATAAATGCACACATATATATAAATAATAT [CACACA_site28] | 9.75
TAAACACCCATACATACACACATACATACACCCATA [CACACA_site5125] | 10
TTCTTCAATATATTCTTACACACTTAAAAAAAAAAA [CACACA_site228] | 9.34
ATATATATATATATATGTACATAATGCATATAATAT [XGTACX_site6142] | 9.79
TTAATACTTTTTTCTGTACACACTTGATTTACTATA [CACACA_site2799] | 9.98
GAAGGAAAAGATACGATAAAATAAGATATTAATTTA [GTGCAC_negctrl_site419] | 9.53
GTATATAAATAAATAGTGCATTATTAAAAATAATGT | 9.83
TTTTTTTTTTTTTATTGTACATACTTTTAAATATAT [XGTACX_site4303] | 9.6
ATTGAGGCTGGTTATATAATAATTTTATTATTTTAG [GTGCAC_negctrl_site409] | 9.71
ATATATTTATATTTTTGTACCCAAAATTGTTTGATG [XGTACX_site3581] | 9.56
TAAAAGTTGAAGCACACACACAAAAGAAATACAATA [CACACA_site6649] | 11.3
TTAAAGCTTGCATATACACACATACATAAATTCATA [CACACA_site7208] | 9.73
